Reference: US20100240033A1 (INSTITUT NATIONAL DE LA SANTE ET DE LA RECHERCHE MEDICAL …, published 2010)

Target: T1, human prolactin receptor mutant I146L (human, UniProt P16471 25-622)
T1 sequence: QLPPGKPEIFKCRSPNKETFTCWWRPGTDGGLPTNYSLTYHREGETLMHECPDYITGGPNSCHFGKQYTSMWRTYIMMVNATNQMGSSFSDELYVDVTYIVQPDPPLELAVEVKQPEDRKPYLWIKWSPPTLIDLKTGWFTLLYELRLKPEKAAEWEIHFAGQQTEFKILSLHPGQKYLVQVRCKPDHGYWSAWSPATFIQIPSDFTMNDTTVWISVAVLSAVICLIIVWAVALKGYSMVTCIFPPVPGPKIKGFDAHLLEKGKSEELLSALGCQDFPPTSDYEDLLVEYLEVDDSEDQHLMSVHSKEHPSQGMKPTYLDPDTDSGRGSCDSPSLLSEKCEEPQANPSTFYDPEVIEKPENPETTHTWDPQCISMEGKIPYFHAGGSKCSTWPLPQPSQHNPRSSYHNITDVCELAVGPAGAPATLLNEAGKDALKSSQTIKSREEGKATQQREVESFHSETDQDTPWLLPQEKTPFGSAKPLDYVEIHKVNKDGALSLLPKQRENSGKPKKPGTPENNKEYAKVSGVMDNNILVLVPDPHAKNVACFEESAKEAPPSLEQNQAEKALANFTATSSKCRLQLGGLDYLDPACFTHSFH
Assay: cell-based or functional assay

B1: recombinant human prolactin (hPRL) (ligand, UniProt P01236 29-227, looked up)
chain: LPICPGGAARCQVTLRDLFDRAVVLSHYIHNLSSEMFSEFDKRYTHGRGFITKAINSCHTSSLATPEDKEQAQQMNQKDFLSLIVSILRSWNEPLYHLVTEVRGMQEAPEAILSKAVEIEEQTKRLLEGMELIVSQVHPETKENEIYPVWSGLPSLQMADEESRLSAYYNLLHCLRRDSHKIDNYLKLLKCRIIHNNNC
modifications: tracer form iodinated (125I, Iodogen method); unlabeled hPRL used as competitor
notes: Recombinant hPRL from bacteria; also called WT hPRL; [125I]-hPRL
  fold stimulation of LHRE-luciferase activity induced by PRL (stable HEK 293 clones, 1 ug/ml PRL): 4 fold
